Source: paper PMC12136788
This is one part of the list.

T1: UNK ZnF1-3 (human, UniProt Q9C0B0 31-174)
T1 sequence: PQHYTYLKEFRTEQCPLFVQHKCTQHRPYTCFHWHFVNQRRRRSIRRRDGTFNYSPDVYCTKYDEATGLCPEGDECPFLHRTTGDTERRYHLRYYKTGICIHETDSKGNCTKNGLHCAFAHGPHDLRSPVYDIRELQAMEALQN

B1: chr15:103023306:103023307:-_ENSMUSG00000009575_ENSMUST00000118152|mus_mus|FALSE|FALSE (ssRNA)
RNA: GGGAGUUCUACAGUCCGACGAUCAGAAACUCACCAAGGUCACUAAGUACUUCCAAACUUGGAAGUAGCUCAGUGAGGGCUAAAAAAACUUCGACUGAAGGUAUCCUCCACAGGCAAUCCUAAAGGAGUUGAUCAGCUCUGAUCCAACAGAGGAUUGAGCAUCA
B2: chr6:71460543:71460544:+_ENSMUSG00000052656_ENSMUST00000064637|mus_mus|motif|central (ssRNA)
RNA: GGGAGUUCUACAGUCCGACGAUCCAACCAAAUAAAUUCUGUCAUCAACAUCAGCAUAAUGUGUAUUUCCUGUCACUGCACGGACAUUAAACUAAACUUCAAACCACAAAAACAUUGUGACUAACAUUAAAAAGGCAAGCUGUACAACAGAGGAUUGAGCAUCA
B3: 176755942_176756202_1265_CDS_ENSG00000177565_ENST00000430069|human|control|control (ssRNA)
RNA: GGGAGUUCUACAGUCCGACGAUCGAUAGCAUUUACUUCAUUCGUAUGUCCUUGGAAUGUUUUAAUAGGUCUGUCUUGUCCUAAUUUACAGACAUGAAUGCACAUAUCUGUACUACAAGAAGCAAAGGUGUUGUUGCUCUGCCACAACAGAGGAUUGAGCAUCA
B4: 86378530_86380689_1287_CDS_ENSG00000132305_ENST00000449247|human|control|control (ssRNA)
RNA: GGGAGUUCUACAGUCCGACGAUCGAUGUGCUGCUUUUCGGUGGCCUUCUGUUCUGCCAGCUCUCUGUUCAGCUGAUCAAUACGACGAUGUGCAUGAGCAAUGAGGGAGUUCAGAUCAUCAGUAGAGAGCUUGUCAGCUAAGUCCAACAGAGGAUUGAGCAUCA
B5: chr8:101937209:101937210:-_ENSG00000164924_ENST00000353245|hu_mus|FALSE|FALSE (ssRNA)
RNA: GGGAGUUCUACAGUCCGACGAUCAUCACCAGCAGCAACCUCGGCCAAGUAACGGUAGUAGUCACCCUUCAUUUUCAAAUAGAAGACUUUGCUUUCUGGUUGCGAAGCAUUGGGGAUCAAGAACUUUUCCAAAAGAGACAGUACCAACAGAGGAUUGAGCAUCA
B6: chr5:89070800:89070801:+_ENSMUSG00000029291_ENSMUST00000031229|mus_mus|FALSE|FALSE (ssRNA)
RNA: GGGAGUUCUACAGUCCGACGAUCUAAAGGCUCAUGUAUAUAAAAGCCUGCCUCCCCAAAUCAAAAAUAGUUCUUUUUUAAAAUCAAAGUAUUUAUAGAAUUAUUUACAGUGUAGAGCCUAGAAAGGGUUGCAUCUGUGGUCACCAACAGAGGAUUGAGCAUCA

Each binder was assayed against T1, UNK ZnF1-3 (assay: nsRBNS (natural sequence RNA bind-n-seq); RBNS binding buffer (assumed for nsRBNS): 25 mM Tris pH 7.5, 150 mM KCl, 3 mM MgCl2, 0.01% Triton X-100, 500 ug/ml BSA, 20 U/ml SUPERase-In, 4 C; UNK is unkempt and MSI1 is Musashi-1; names of the RNAs are library labels; protein concentration not given here; high values mean tight binding).

Binder | binding signal
B1 | 1.38 enrichment R
B2 | 1.18 enrichment R
B3 | 0.937 enrichment R
B4 | 0.89 enrichment R
B5 | 1.26 enrichment R
B6 | 2.25 enrichment R
